{"source": "paper PMC6919601", "about": "“Identification of Plasmodium dipeptidyl aminopeptidase allosteric inhibitors by high throughput screening” (PLoS ONE, 2019)", "note": "Among all 110,000 compounds or so, about 230 (0.21%) showed an effect of 50% or more. The list shows a part of the results.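 Further: 30 min substrate incubation versus DMSO and 10 µM JCP410 controls.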"}
{"biological_target": "DPAP1 (Plasmodium falciparum, UniProt Q8IIJ9)", "sequence (Q8IIJ9 whole entry, looked up)": "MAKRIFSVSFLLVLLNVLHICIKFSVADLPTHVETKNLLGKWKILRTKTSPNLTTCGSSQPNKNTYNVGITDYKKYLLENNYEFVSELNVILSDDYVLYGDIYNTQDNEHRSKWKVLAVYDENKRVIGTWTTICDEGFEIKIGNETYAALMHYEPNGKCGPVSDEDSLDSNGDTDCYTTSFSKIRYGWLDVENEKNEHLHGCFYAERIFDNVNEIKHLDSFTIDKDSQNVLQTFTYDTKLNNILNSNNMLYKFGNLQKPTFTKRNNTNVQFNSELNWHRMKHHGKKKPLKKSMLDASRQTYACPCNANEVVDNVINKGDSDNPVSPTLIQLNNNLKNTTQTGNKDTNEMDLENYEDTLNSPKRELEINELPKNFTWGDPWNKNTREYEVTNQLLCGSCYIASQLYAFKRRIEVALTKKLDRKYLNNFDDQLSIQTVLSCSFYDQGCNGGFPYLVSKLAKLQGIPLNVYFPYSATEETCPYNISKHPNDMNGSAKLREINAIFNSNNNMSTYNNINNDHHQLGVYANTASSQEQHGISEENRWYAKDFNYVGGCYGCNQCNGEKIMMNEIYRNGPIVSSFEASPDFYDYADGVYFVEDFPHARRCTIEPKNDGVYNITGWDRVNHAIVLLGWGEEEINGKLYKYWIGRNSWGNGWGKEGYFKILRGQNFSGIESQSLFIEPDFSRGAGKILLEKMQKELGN", "test": "primary screen, percent inhibition; read by cleavage of a fluorogenic dipeptide substrate; higher = more effect of the substance", "set-up": "species or system P. falciparum D10 trophozoite lysates; single well", "units": {"% Inhibition @ 10 uM": "%"}}
{"smiles": "CCOC(=O)N1CCC(NC(=O)c2cccc3c2C(=O)N(CCOC)C3)CC1", "% Inhibition @ 10 uM": 2.9}
{"smiles": "FC(F)(F)c1cccc(OCCNc2nc3ccccc3c3nc(-c4cccnc4)nn23)c1", "% Inhibition @ 10 uM": 5.49}
{"smiles": "CC(C)CCNC(=O)CN1C(=O)CSc2ncccc21", "% Inhibition @ 10 uM": -7.93}
{"smiles": "COc1ccc(C2C(C(C)=O)=C(C)N=c3s/c(=C/c4ccc5c(c4)OCO5)c(=O)n32)cc1", "note": "(centres unmarked)", "% Inhibition @ 10 uM": 4.44}
{"smiles": "CCC(C)c1ccc(NS(=O)(=O)Cc2ccccc2)cc1", "note": "(centres unmarked)", "% Inhibition @ 10 uM": -3.38}
{"smiles": "Cc1nc(=O)c(-c2ccccc2)c(C)n1CCO", "% Inhibition @ 10 uM": -3.04}
{"smiles": "O=C(C1=C(O)C(=O)N(Cc2cccnc2)C1c1ccc(Cl)cc1)c1ccc(F)cc1", "note": "(centres unmarked)", "% Inhibition @ 10 uM": -2.32}
{"smiles": "CC(C)(C)c1cc(C(=O)CCCC(=O)O)c(C(C)(C)C)s1", "% Inhibition @ 10 uM": -4.73}
{"smiles": "COCC(C)NC1C2CC3CC(C2)CC1C3", "note": "(centres unmarked)", "% Inhibition @ 10 uM": 0.162}
{"smiles": "COc1ccc(CCN(C(C)=O)C2CC(=O)N(c3ccc(Cl)cc3)C2=O)cc1", "note": "(centres unmarked)", "% Inhibition @ 10 uM": -3.05}
{"smiles": "COc1ccc(C(=O)Nc2ccc(Br)cc2)c(OC)c1", "% Inhibition @ 10 uM": -0.116}
{"smiles": "Cc1cc(C)c(CN2CCCN(Cc3ccc(Cl)cc3)S2(=O)=O)c(C)c1", "% Inhibition @ 10 uM": -7.08}
{"smiles": "Cn1c(=O)[nH]c2sc3c(c2c1=O)CC(C)(C)OC3", "% Inhibition @ 10 uM": -1.66}
{"smiles": "CC(C)c1ccc(NC(=O)c2cnccn2)cc1", "% Inhibition @ 10 uM": 1.8}
{"smiles": "CC(C)Cc1ccc(C(C)C(=O)Nc2cccnc2)cc1", "note": "(centres unmarked)", "% Inhibition @ 10 uM": -1.63}
{"smiles": "CC(C)C[C@H](NC(=O)c1ccccc1F)C(=O)NCC#N", "% Inhibition @ 10 uM": -1.41}
{"smiles": "CCCCn1c(O)cc(=O)nc1SCC(=O)N1CCCCC1", "% Inhibition @ 10 uM": 0.658}
{"smiles": "NC(=S)N/N=C/C=C/c1cccs1", "% Inhibition @ 10 uM": 21.9}
{"smiles": "O=C(NCc1ccccc1)N1CCN(c2nc3ccccc3s2)CC1", "% Inhibition @ 10 uM": -2.28}
{"smiles": "O=C(COc1ccccc1)N1N=C(c2ccncc2)CC1(O)C(F)(F)F", "note": "(centres unmarked)", "% Inhibition @ 10 uM": 0.859}
{"smiles": "O=C1C(Cl)=C(N2CCOCC2)C(=O)N1c1cc(Cl)ccc1Cl", "% Inhibition @ 10 uM": 3.46}
{"smiles": "O=C(O)C1=C2C(=O)Nc3cccc(c32)C2(C1)C(=O)Nc1ccccc12", "note": "(centres unmarked)", "% Inhibition @ 10 uM": -4.06}
{"smiles": "CC1=C(C(=O)OCCc2ccccc2)C(c2cccc(C(F)(F)F)c2)NC(=O)N1C", "note": "(centres unmarked)", "% Inhibition @ 10 uM": -0.467}
{"smiles": "Cc1nc(-c2cn[nH]c2)c2cc(C)oc2n1", "% Inhibition @ 10 uM": -0.424}
{"smiles": "O=C(Nc1cccc(C(F)(F)F)c1)NC1CCCCC1", "% Inhibition @ 10 uM": -2.12}
{"smiles": "COc1cc(Br)c(/C=C2\\S/C(=N/c3cccc(C(=O)O)c3)N(C)C2=O)cc1OC", "% Inhibition @ 10 uM": -0.185}
{"smiles": "CCOC(=O)c1nnn(-c2nonc2N)c1CN1CCOCC1", "% Inhibition @ 10 uM": 10.6}
{"smiles": "CC(=O)Nc1nc2cc3sc(NC(C)=O)nc3cc2s1", "% Inhibition @ 10 uM": 13.5}
{"smiles": "COc1ccc(C(=O)Nc2nc(C)c(C)s2)cc1OC", "% Inhibition @ 10 uM": -4.59}
{"smiles": "Cc1ccc(-c2nnc(S)n2-c2ccccc2)cc1", "% Inhibition @ 10 uM": 10.5}
{"smiles": "O=C1C(Cl)=C/C(=N/S(=O)(=O)c2cccs2)c2ccccc21", "% Inhibition @ 10 uM": 6.64}
{"smiles": "Cc1cccc(OCC(=O)NCc2ccccn2)c1C", "% Inhibition @ 10 uM": 2.86}
{"smiles": "CCOc1ccc(CNc2nc3ccc(C)cc3n3nnnc23)cc1OC", "% Inhibition @ 10 uM": 0.796}
{"smiles": "CCc1ccc(C2=CC(c3ccccc3Cl)n3nnnc3N2)cc1", "note": "(centres unmarked)", "% Inhibition @ 10 uM": 1.73}
{"smiles": "COCc1nc2ccccc2n1CCCOc1cc(C)ccc1C(C)C", "% Inhibition @ 10 uM": -4.07}
{"smiles": "O=C1/C(=C\\c2ccccc2)N2CCC1CC2", "% Inhibition @ 10 uM": 2}
{"smiles": "O=C1C2C3C=CC(C3)C2C(=O)N1c1cc(Cl)ccc1Cl", "note": "(centres unmarked)", "% Inhibition @ 10 uM": -0.318}
{"smiles": "CCC(C)NC(=O)CNC(=S)N1CC2CC(C1)c1cccc(=O)n1C2", "note": "(centres unmarked)", "% Inhibition @ 10 uM": -2.26}
{"smiles": "CCOc1ccc(CCNC(=O)CN(C)c2nn3c(=O)cc(C)nc3s2)cc1", "% Inhibition @ 10 uM": -0.281}
{"smiles": "CCCSc1ncc(Cl)c(C(=O)Nc2sc3c(c2C(=O)OCC)CCC3)n1", "% Inhibition @ 10 uM": -2.21}
{"smiles": "NC(=O)C1(N2CCCCC2)CCN(S(=O)(=O)c2ccc(Br)cc2)CC1", "% Inhibition @ 10 uM": 0.569}
{"smiles": "Cc1[nH]nc(N2C(=O)c3c(Cl)c(Cl)c(Cl)c(Cl)c3C2=O)c1Br", "% Inhibition @ 10 uM": 1.3}
{"smiles": "CCNC(=O)c1c(NC(=O)c2nc(S(C)(=O)=O)ncc2Cl)sc2c1CCCC2", "% Inhibition @ 10 uM": 2.19}
{"smiles": "Cc1ccc2c(CNCc3ccccc3C)c(C(=O)O)n(Cc3ccccc3C)c2c1", "% Inhibition @ 10 uM": 4.96}
{"smiles": "COc1cccc(-c2nc(-c3cc4ccccc4nc3O)no2)c1", "% Inhibition @ 10 uM": 4.96}
{"smiles": "COc1ccc(C)cc1NC(=O)COc1ccccc1", "% Inhibition @ 10 uM": -4.02}
{"smiles": "N#Cc1c(-c2ccccc2)cc(C(F)F)nc1S", "% Inhibition @ 10 uM": 76.3}
{"smiles": "CC1CCCC(NC(=O)c2cc(S(=O)(=O)N3CCCCC3)c[nH]2)C1C", "note": "(centres unmarked)", "% Inhibition @ 10 uM": -2.86}
{"smiles": "O=c1cccc2n1C[C@H]1C[C@@H]2CN(Cc2ccc(Cl)cc2Cl)C1", "% Inhibition @ 10 uM": -3.63}
{"smiles": "CCCCOc1ccc(C(=O)N(Cc2ccc(Cl)cc2)C2CCS(=O)(=O)C2)cc1", "note": "(centres unmarked)", "% Inhibition @ 10 uM": 2.43}
{"smiles": "Cc1ccc(NC(=O)c2cccnc2Cl)c(Br)c1", "% Inhibition @ 10 uM": 0.0504}
{"smiles": "CC(C)CC(NC(=O)C1CCC(C)CC1)C(=O)NC1CCN(Cc2ccccc2)CC1", "note": "(centres unmarked)", "% Inhibition @ 10 uM": -1.73}
{"smiles": "CCOc1cc2c(cc1/C=C1/SC(=O)N(C(C)C)C1=O)OCO2", "% Inhibition @ 10 uM": -3.41}
{"smiles": "CCOC(=O)C1=CN(C)C=C(C(=O)OCC)C1c1cc(Br)ccc1OC", "% Inhibition @ 10 uM": 3.45}
{"smiles": "C=CCO/C(O)=C1/C(C)=Nc2ncnn2C1c1ccc(CC)cc1", "note": "(centres unmarked)", "% Inhibition @ 10 uM": 0.0842}
{"smiles": "Cc1ccc(C)c(N(CC(=O)Nc2ccc(Br)cc2)S(C)(=O)=O)c1", "% Inhibition @ 10 uM": 3.83}
{"smiles": "CCOC(=O)N1CCN(Cc2c(C)n(C)n(-c3ccccc3)c2=O)CC1", "% Inhibition @ 10 uM": -1.21}
{"smiles": "CCOCCCNC(=O)Cn1ncc2c3ccccc3n(Cc3c(C)cc(C)cc3C)c2c1=O", "% Inhibition @ 10 uM": -5.19}
{"smiles": "CC(=O)c1cc2c(cc1N)OCCO2", "% Inhibition @ 10 uM": 2.51}
{"smiles": "Cc1cc(-c2ccc(S(=O)(=O)NCCc3ccccc3)cc2)on1", "% Inhibition @ 10 uM": -1.83}
{"smiles": "COc1cc(CNC(C)(C)CO)ccc1OCc1ccc(Cl)cc1", "% Inhibition @ 10 uM": -1.96}
{"smiles": "Cc1[nH]c2ccccc2c1-c1csc(-c2cccnc2)n1", "% Inhibition @ 10 uM": -2.64}
{"smiles": "CC(C(=O)O)N1C(=O)c2cccc3cccc(c23)C1=O", "note": "(centres unmarked)", "% Inhibition @ 10 uM": -1.37}
{"smiles": "COc1ccc(C2CC(C(F)(F)F)n3ncc(C(=O)NCCc4ccccc4)c3N2)cc1OC", "note": "(centres unmarked)", "% Inhibition @ 10 uM": -3.78}
{"smiles": "CCOc1cc(C2c3c(oc4ccc(F)cc4c3=O)C(=O)N2Cc2ccccc2Cl)ccc1O", "note": "(centres unmarked)", "% Inhibition @ 10 uM": -3.13}
